This is one part of the list. At the low end of the ranking the order means little. The protein was read in a cell extract, so binding may be indirect.

For the experiment, the target named is T1, HNF4alpha8 (COS-7 nuclear extract) (UniProt P41235-5).
T1 sequence: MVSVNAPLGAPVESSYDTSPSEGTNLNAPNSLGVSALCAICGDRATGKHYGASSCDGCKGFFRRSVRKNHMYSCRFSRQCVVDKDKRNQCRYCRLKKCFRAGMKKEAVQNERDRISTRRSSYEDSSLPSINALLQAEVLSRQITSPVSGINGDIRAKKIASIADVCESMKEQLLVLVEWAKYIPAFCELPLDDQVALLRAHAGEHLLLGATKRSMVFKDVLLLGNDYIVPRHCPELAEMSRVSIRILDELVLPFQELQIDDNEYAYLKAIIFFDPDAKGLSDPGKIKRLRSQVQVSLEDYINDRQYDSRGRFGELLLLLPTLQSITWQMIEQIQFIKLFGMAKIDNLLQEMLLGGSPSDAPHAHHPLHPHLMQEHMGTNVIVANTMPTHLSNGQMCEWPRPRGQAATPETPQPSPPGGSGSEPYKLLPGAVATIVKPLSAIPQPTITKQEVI
The experiment in a line: protein-binding microarray. As to conditions: COS-7 nuclear extract on double-stranded Agilent 4x180k PBM; binding buffer, salt, pH and temperature not given; high values mean tight binding; double strand, one strand shown; sequences stand for … in …GCCTAGGGAGATTAGAGTATCGGTCGA
As for TGACAATTACATAGTTGAAATAGCATGAAT, the binding signal (log2 normalized intensity) was -1.32.
Then TCTTTGGTGGTGGGGGGTAGCCACTGACAG, with -1.2; and GATGTTCTACACTGCTTACCCTGCAGTGTG, with -0.757.
Then GGTGGTGATGGTGGGAGGGAGGCTTTTGCA, with -1.33; and GCTAAGAGACAGCTCCACAGCTGGACTTTG, with 5.9; and GAGGCAGTCCTGGCTTGGCCACCTACTAGC, with -1.4.
Then AGAGAGGGATTAAAGTGTAGGGAGTGTCCA, with -0.181; and CTTTGTTGGTTTTGCCCGAGGTCTGATAAG, with 1.55; and CAAATATTTACTAGTTAAGTCACTGGGCTG, with -1.32.
For the sequence AAGTGTCAGAGCAGGTGAACGACTTGACAA, the binding signal (log2 normalized intensity) is -1.36.
With TGGGGTCTCGCTGCTTCGGCCTTTGACCTC the figure was 8.46.
In the case of TTCATAGGTCAATTCTTTGAAGTCTTCCCT, the binding signal (log2 normalized intensity) stood at 1.03.
Then ATCCTGGGCTACCGATATGAGGCTTCCATT, with -1.38.
With GAGAGTCAAAGGTTAATGAGCCCCCTAAAA the figure was 4.43.
Then CAGAGGACAGGTTTCCTGAGTTACAGATAA, with -0.778.
Turning to TGGAGATATGATAGCTGACAAGCAAACACA, the binding signal (log2 normalized intensity) was -1.
CCTCCTATGATCTTTCATTCCTATTGTCCC: the binding signal (log2 normalized intensity) stood at 1.88.
Take TCGTGCCCTAATCTCACTCTTTGTTATTTA: the binding signal (log2 normalized intensity) came to 0.865.
For the sequence AAGAATTGCTCAACCTGGACCTCATTAATA, the binding signal (log2 normalized intensity) was 1.25.
Then AGCAAAGTTCAATTTCCAACAAATGAAACT, with -0.885; and CAAAAGAGGCTTCCTGGGCCAGGTCACTTG, with 0.615.
With AGCTTGAGAAACAGGGGCTTAAACCTTTAA the figure was -0.773; with CTCTCACCTGCCTAACATTCTCTAATCAGG, -1.31.
As to GTTTGTATTCCTTGTCCTTGACCCTTCCTC, the binding signal (log2 normalized intensity) is 4.13.
On to TAGTGGCTGAAAGTACTGGCCAGATGAGGT, for which the binding signal (log2 normalized intensity) was -0.774.
With TGTGTCTTGATCTTGCAACTCAACCCTGGC, the binding signal (log2 normalized intensity) worked out at 0.635.
As for ACCGACCTTTGGTTCCTGAACTCAAACCCC, the binding signal (log2 normalized intensity) stood at 3.35.
Then ACACAATCTAAAAAGTATGTCATAATGTAC, with 1.42; and CTATTTACACAGCTGATGGAAGTTTGCCCT, with 3.59.
Then CTCTAGCTGTCCTCCTCTGAAGGAACTTCT, with -1.3; and ATAAATACCAAAGCCATGGCTCCAACCCGA, with -1.29.
Then CCCCACCCCCCACCCCAGAAGTATGGGAAG, with 4.55; and CACAGGAGAAAACAGCACAAGCAATGGCTG, with -1.26; and GTTATCACAGCTGGCCCACTGTTCTCTCTA, with -1.4.
As to CGGGTATGTGGGGCGTGTGTTAGACTTTGG, the binding signal (log2 normalized intensity) was determined as 4.91.
Then CCATAGCGAAGCCGGCGGCGGAATGCTTGT, with -1.36; and GCTCTGTTTTACAAACACAATGGAAGGCTG, with -1.31.
With ACCTCAACTCTCAGTTTGGCTCTTATGTCC the figure was 1.21; with GAGGAAGGAATGCACATGCCTTAAGGGACC, -1.24; with GCAGGAGGTCAGAAACAGAAAGTCCGGGGG, -1.36.
Turning to GTCATGGCAACAGTTTTCTGGGATGCCCAA, the binding signal (log2 normalized intensity) was 0.167.
Consider GATGGTACAAATTCATGGCTGGGCTCGGCT, for which the binding signal (log2 normalized intensity) was -1.37.
With CTCTGCAACTCAGAGACAGGGATTGGTTCT, the binding signal (log2 normalized intensity) was -1.19.
With CTAACAAGCTGCCAAACTCTCACTCTACTC, the binding signal (log2 normalized intensity) was -1.26.
Then GTGACCTTCGATCACCTCAAGAAAGAGGTG, with 2.8; and TATTTGACCTTCGGCCTCAATTATAACTCA, with 5.59.
With CTGGACTCAAGGAATCCTCCTAAGTAGCCA the figure was -1.39.
For the sequence TTGAATTCCTGGAAATCCCGAAATAGAGCC, the binding signal (log2 normalized intensity) is -1.34.
For GCCTGTGCTAAGTTTCAAAGAGGAGGCAGA, the binding signal (log2 normalized intensity) was -1.18.
With CTGGTAAAGCACTTTGCCCCCAAGAAAAGG the figure was 4.2.
With CACTTGGTGGACATGGTTCACTGATTACTG the figure was 0.694.
With TTATCTCAGATGAGACTTTGGACTTTTGAA the figure was 8.04; with CTCTTCAGAATGGCCTGCCCATCCCCCCAA, 5.38.
TCATATGGACTATGTTTACACAGCCTTGTA: the binding signal (log2 normalized intensity) is 0.615.
Then TCCTCCAAAACCCAGTTCATAGGTCAATTC, with 4.9.
With TGGAGCAATTCAACAACTGTGCATTCTGAA the figure was -0.914.
Then GGAATGTGCAAACGGCCCAGGGTTAGAGGA, with -1.25.
Turning to AGGCAGCATGGAATGACTTTGGGGAAATGA, the binding signal (log2 normalized intensity) is -1.47.
For the sequence GATGAAGCAATAGGAATCACACAACTTTCA, the binding signal (log2 normalized intensity) was -1.38.
Turning to GCAGAGGCCTGATGGTGAGTTCTGTCCTTT, the binding signal (log2 normalized intensity) was 2.44.
For CTTGGCTGTGCTGCCCTTTGCCCTTTGGGA, the binding signal (log2 normalized intensity) is 7.91.
With AGCTGGACTTTGAACTTCATGTGTGGTGCA the figure was 6.95; with CCGTTAGCCAATATTTGCAAGGCTGTTGGC, -0.823.
Then CTGAAGACAAAGCACAATCAAAGCAATGGC, with -1.3; and CTAGGAGAATCACTAGGACATATATGAGGA, with -1.24.
Turning to GATTGGGTCTTCTAGAAACAACACACCTTG, the binding signal (log2 normalized intensity) was -1.21.
Regarding GGGCTTGCAAAGGTCAGGTTTCAGGAATCA, the binding signal (log2 normalized intensity) was determined as 2.13.
In the case of GTCACCTACATGTGAGAGAGGCTTATGCAT, the binding signal (log2 normalized intensity) is -1.38.
With TCAAGGGTGTTCCTGAGTAAATCTCACATT the figure was 0.084.
Consider TATCTGGTTCAAAGGTCATTTCTGCTTGCA, for which the binding signal (log2 normalized intensity) was found to be 6.43.
Turning to ACAAGCGTCGCTGAGTGGAGGCCCAGTAAG, the binding signal (log2 normalized intensity) was -1.25.
Consider TGTTCTCTTTATTTATTAACTGGAGATAAC, for which the binding signal (log2 normalized intensity) came to 0.939.

Source of the values: paper PMC10726135.
